Consider 48 compounds from PubChem BioAssay AID2528 (National Center for Advancing Translational Sciences (NCATS), 2010).

The campaign covered roughly 350,000 compounds. About 700 (0.2%) were called active. The call rests on the fitted dose curve; in most records, active means well fitted inhibition curve with a large enough effect; inconclusive means small, poorly fitted or top-dose-only effect; inactive means flat fitted curve, though single readings scatter. This is a selection; strong and weak results do not stand in their true shares. Some structures have more than one record in an assay (separate samples or runs), and their calls can disagree.
Potency means the concentration at half of the fitted maximal effect.

For this assay, the target named is RecQ-like DNA helicase BLM (Homo sapiens) (UniProt P54132). Briefly: qHTS Assay for Inhibitors of Bloom's syndrome helicase (BLM). Further: nearly all actives have a fitted effect of over 35% in size.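 On activity change, negative = inhibition: plate controls were vehicle for no effect and no enzyme for full effect.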 The note with it: recombinant BLM DNA unwinding, fluorescence dequenching; series mostly up to 56.1 µM; activity change, negative = inhibition: at the top concentration. For orientation: In qHTS, concentration-response curves come from the screen itself.
UniProt P54132, sequence (P54132 whole entry, looked up): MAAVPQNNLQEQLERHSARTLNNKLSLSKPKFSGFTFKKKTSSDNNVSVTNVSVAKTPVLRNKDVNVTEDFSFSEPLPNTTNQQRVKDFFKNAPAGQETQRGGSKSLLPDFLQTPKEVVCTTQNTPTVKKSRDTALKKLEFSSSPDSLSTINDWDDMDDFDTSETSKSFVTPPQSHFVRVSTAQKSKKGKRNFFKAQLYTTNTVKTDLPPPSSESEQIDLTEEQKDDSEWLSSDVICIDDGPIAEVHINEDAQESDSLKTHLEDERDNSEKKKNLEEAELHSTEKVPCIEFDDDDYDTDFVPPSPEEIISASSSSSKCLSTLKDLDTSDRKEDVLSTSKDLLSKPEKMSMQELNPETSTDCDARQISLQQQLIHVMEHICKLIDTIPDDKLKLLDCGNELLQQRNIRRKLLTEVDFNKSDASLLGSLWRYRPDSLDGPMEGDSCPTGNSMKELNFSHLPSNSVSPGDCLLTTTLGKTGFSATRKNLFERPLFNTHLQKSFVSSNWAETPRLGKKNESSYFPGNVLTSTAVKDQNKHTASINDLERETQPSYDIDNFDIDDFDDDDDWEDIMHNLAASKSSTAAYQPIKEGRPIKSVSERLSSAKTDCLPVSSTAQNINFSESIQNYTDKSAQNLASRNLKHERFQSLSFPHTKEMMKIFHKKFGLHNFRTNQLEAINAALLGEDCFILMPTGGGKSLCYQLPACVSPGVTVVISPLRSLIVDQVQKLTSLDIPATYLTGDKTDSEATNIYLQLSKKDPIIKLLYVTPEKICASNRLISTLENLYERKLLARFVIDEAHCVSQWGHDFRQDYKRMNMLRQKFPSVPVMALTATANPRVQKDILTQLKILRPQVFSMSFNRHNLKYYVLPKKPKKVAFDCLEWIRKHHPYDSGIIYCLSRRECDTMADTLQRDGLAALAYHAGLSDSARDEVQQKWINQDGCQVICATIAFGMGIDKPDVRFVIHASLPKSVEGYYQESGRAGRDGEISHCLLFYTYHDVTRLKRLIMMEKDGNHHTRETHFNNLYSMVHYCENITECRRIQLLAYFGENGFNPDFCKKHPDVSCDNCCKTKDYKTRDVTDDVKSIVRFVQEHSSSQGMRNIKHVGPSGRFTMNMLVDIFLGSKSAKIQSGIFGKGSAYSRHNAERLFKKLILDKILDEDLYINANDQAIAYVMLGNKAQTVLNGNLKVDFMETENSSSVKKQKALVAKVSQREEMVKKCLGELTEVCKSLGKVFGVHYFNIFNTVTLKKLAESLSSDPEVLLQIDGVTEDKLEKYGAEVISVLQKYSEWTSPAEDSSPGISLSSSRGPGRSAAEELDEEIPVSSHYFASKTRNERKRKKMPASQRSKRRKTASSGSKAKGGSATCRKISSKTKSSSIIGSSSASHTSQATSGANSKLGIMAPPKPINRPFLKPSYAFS
Consider `Oc1cc2c(cc1O)[C@H](c1ccccc1)CNCC2`, for which the “activity change, negative = inhibition” value is inactive: 0.966%. Same read-out and setting: next, `CC#C[C@]1(O)CC[C@H]2[C@@H]3CCC4=CC(=O)CCC4=C3[C@H](c3ccc(N(C)C)cc3)C[C@@]21C`: inactive: -11.1%.

`Cc1ccc([N+](=O)[O-])cc1S(=O)(=O)N(C)C`: the Potency result was “inactive”. `Fc1cccc(/C=N\N=C/c2cccc(F)c2)c1`: the “activity change, negative = inhibition” value was inactive: -0.519%. In the case of `O=C(OC1Cc2c(O)cc(O)cc2OC1c1cc(O)c(O)c(O)c1-c1c(C2Oc3cc(O)cc(O)c3CC2O)cc(O)c(O)c1O)c1cc(O)c(O)c(O)c1` (stereo not drawn), the Potency is active: 6.31 µM. The same measure, in the same setting: as for `COc1ccc(-n2cccc2/C=C2\C(=N)N3N=C(c4ccco4)SC3=NC2=O)cc1`, the figure is active: 12.6 µM. Turning to `CNCC(O)c1cccc(O)c1` (stereo not drawn), the “activity change, negative = inhibition” value is inactive: -11.4%. For the compound `Oc1ccc(N=Cc2ccc(OCc3ccccc3)cc2)cc1`, the Potency is active: 31.6 µM. With `CC(C)(C)[C@]1(O)CCN2C[C@H]3c4ccccc4CCc4cccc(c43)[C@@H]2C1`, the “activity change, negative = inhibition” value is inactive: -8.58%. In the case of `CCn1c(SCC(N)=O)nc2sc3c(c2c1=O)CCN(C)C3`, the Potency was active: 0.708 µM. For `CC(C)NC[C@H](O)c1cc(O)cc(O)c1`, the “activity change, negative = inhibition” value is inactive: 3.08% [at 21.4 µM]. Still for that read-out and setting: next, `CC(=O)O[C@H]1C(=O)[C@@]2(C)[C@H]([C@H](OC(=O)c3ccccc3)[C@]3(O)C[C@H](OC(=O)[C@H](O)C(NC(=O)c4ccccc4)c4ccccc4)C(C)=C1C3(C)C)[C@]1(OC(C)=O)CO[C@@H]1C[C@@H]2O` (stereo partly drawn): inactive: -8.6%.

For the compound `CCc1cccc2c3c([nH]c12)[C@@](CC)(CC(=O)O)OCC3`, the “activity change, negative = inhibition” value was inactive: -4.29% [at 21.4 µM]. Still for that read-out and setting: next, `CN(C)C1C(=O)C(C(N)=O)=C(O)[C@@]2(O)C(=O)C3=C(O)c4c(O)ccc(Cl)c4C(O)[C@H]3C[C@@H]12` (stereo partly drawn): inactive: -12.9%.

On to `O=C(O)C1=CCCNC1`, for which the Potency result is “inactive”.

For `Cc1cc(C)c(/C=C2\C(=O)Nc3ccccc32)[nH]1`, the Potency entry was “inactive”. As to `Cc1ccc(-c2nc3c(c(SCC(=O)Nc4cccc(C(=O)O)c4)n2)Cc2cccc(C)c2O3)cc1`, the Potency is active: 4.47 µM. On the same count and under the same terms, next, `O=C(CSc1nc(-c2ccc(F)cc2)nc2c1Cc1ccccc1O2)Nc1ccc(C(=O)O)cc1`: active: 8.91 µM. With `Cc1cccc(C#Cc2ccccc2)n1`, the “activity change, negative = inhibition” value was inactive: 2.66%. Regarding `N[C@H](C(=O)O)c1cc(O)cc(O)c1`, the Potency entry was “inactive”. For the compound `COc1c(-c2ccc(O)c(O)c2)oc2cc(O)cc(O)c2c1=O`, the “activity change, negative = inhibition” value is inactive: 4.41%. As to `N[C@]1(C(=O)O)CCc2cc(C(=O)O)ccc21`, the “activity change, negative = inhibition” value was inactive: -9.36%. For `Cc1ccc(Cl)c(Nc2ccccc2C(=O)O)c1Cl`, the Potency entry was “inactive”. Turning to `Cc1cc(/C=C/c2ccc3cc(N(C)C)ccc3[n+]2C)c(C)n1-c1ccccc1`, the “activity change, negative = inhibition” value was inactive: -23.2%. As to `CCn1nc(C(=O)O)c(=O)c2cc3c(cc21)OCO3`, the Potency entry was “inactive”. For the compound `COc1cccc(=O)c2c(C)n(CC(=O)c3ccccc3)c(C)c12`, the Potency is active: 25.1 µM.

For the compound `C[C@]12CC[C@@H]3c4ccc(O)cc4CC[C@H]3[C@@H]1CC[C@H]2O`, the “activity change, negative = inhibition” value is inactive: -0.226%. On the same count and under the same terms, next, `Fc1cccc(/C=N/N=C/c2cccc(F)c2)c1`: inactive: -3.16%. Still for that read-out and setting: as for `CN(C)CCO[C@](C)(c1ccccc1)c1ccccn1`, the figure is inactive: 3.42% [at 21.4 µM]. As to `Cc1ccc(/C=c2\sc3nc(-c4ccco4)nn3c2=O)o1`, the Potency was active: 25.1 µM. For `O=C(CCl)Nc1ccccc1Sc1ccc(Cl)cc1`, the Potency was active: 15.8 µM. Regarding `CN(C)c1ccc(/C=C2/C(=O)Nc3ccccc32)cc1`, the “activity change, negative = inhibition” value was inactive: -9.29%. Still for that read-out and setting: next, `C=C[C@@]1(C)CC(=O)[C@]2(O)[C@@]3(C)[C@H](O)CCC(C)(C)[C@@H]3[C@H](O)[C@H](OC(C)=O)[C@@]2(C)O1`: inactive: -0.509%. On the same count and under the same terms, as for `CC12CCC3c4ccc(O)cc4CCC3C1CCC2O` (stereo not drawn), the figure is inactive: -3.21%. Consider `Cn1c(SCC(=O)c2cc(Cl)c(Cl)s2)nnc1-c1ccco1`, for which the Potency was active: 12.6 µM. Still for that read-out and setting: next, `O=C(O)CSc1cc(C(=O)c2ccccc2O)cn2c(=O)c3c(-c4ccccc4)csc3nc12`: active: 28.2 µM; `Cc1cc(-c2nc3c4c5c(sc4[nH]c(=O)n3n2)CCC5)c(C)o1`: active: 14.1 µM. For the compound `Oc1cc2c(c(Cl)c1O)CCNC[C@H]2c1ccccc1`, the “activity change, negative = inhibition” value was inactive: -6.72%. In the case of `O=C1NCN(c2ccccc2)C12CCN(CCCC(c1ccc(F)cc1)c1ccc(F)cc1)CC2`, the Potency result was “inactive”.

With `C[C@@]12C(=O)OC(=O)[C@]1(C)[C@H]1CC[C@@H]2O1`, the “activity change, negative = inhibition” value was inactive: 1.74% [at 21.4 µM]. On the same count and under the same terms, as for `O=C(O)CCC(=O)N1CCC[C@H]1C(=O)O`, the figure is inactive: 1.51%.

Consider `COc1cc(-c2nnc(SCc3cc(=O)oc4cc(O)c(O)cc34)o2)cc(OC)c1OC`, for which the Potency was active: 10 µM.

Regarding `O=[N+]([O-])c1cccc2c(Br)[nH]nc12`, the Potency result was “inactive”.

Regarding `COc1ccc2nc(-c3ccco3)c(-c3ccco3)nc2c1`, the Potency is active: 12.6 µM. Consider `CC(=O)SCC[N+](C)(C)C`, for which the “activity change, negative = inhibition” value was inactive: -1.24%. On the same count and under the same terms, as for `Nc1ccc(-c2ccc3ccccc3n2)cc1`, the figure is inactive: -4.86%.

Take `CNC(=O)COC(=O)c1cc(-c2ccco2)nc2ccccc12`: the Potency was active: 15.8 µM. As for `CCOc1cccc(CNc2ccc(O)cc2)c1OCc1ccccc1Cl`, the “activity change, negative = inhibition” value is inactive: -10.2%.
